Reference: US20250312444A1 (BEIJING TUO JIE BIOPHARMACEUTICAL, published 2025)
Blank lines part the entries; values can stand above or below the binder they belong to.

Experiments:
[1] = target: human serum albumin (HSA) (human); test: ELISA, albumin coated, anti-human Fc detection
[2] = target: T1, monkey serum albumin (CySA) (monkey); test: ELISA, albumin coated, anti-human Fc detection
T1 chain: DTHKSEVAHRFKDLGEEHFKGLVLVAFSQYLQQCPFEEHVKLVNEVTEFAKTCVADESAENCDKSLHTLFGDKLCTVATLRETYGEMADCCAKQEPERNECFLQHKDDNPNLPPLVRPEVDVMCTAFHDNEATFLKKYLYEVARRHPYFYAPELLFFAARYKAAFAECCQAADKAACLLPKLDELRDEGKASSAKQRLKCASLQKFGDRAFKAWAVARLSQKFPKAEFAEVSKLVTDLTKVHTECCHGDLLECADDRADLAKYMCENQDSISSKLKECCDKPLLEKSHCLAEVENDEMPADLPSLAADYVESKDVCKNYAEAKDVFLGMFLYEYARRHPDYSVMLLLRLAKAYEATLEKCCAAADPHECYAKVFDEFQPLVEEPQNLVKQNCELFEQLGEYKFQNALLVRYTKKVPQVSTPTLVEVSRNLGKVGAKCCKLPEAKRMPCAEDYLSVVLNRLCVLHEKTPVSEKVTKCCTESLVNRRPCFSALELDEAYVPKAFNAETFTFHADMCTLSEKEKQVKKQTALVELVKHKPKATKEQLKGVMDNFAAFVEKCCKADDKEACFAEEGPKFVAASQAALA

[3] = target: mouse serum albumin (mSA) (mouse); test: ELISA, albumin coated, anti-human Fc detection
[4] = target: human serum albumin (HSA) (human); test: SPR Biacore T200, antibody captured on protein A, albumin as analyte
[5] = target: T1, monkey serum albumin (CySA); test: as above
[6] = target: mouse serum albumin (mSA) (mouse); test: as above

- EC50 [1]: 0.046 µg/mL
- EC50 [2]: 0.0386 µg/mL
- EC50 [3]: 0.0412 µg/mL
- Kd [4]: 0.313 nM
- koff [4]: 2.64e-05 s⁻¹
- kon [4]: 84300 M⁻¹ s⁻¹
- Kd [5]: 0.493 nM
- koff [5]: 4.4e-05 s⁻¹
- kon [5]: 89200 M⁻¹ s⁻¹
- Kd [6]: 14 nM
- koff [6]: 31 s⁻¹
B1: #9aHSA-IgG1Fc (Fc fusion)
heavy: DVQLVESGGGSVQAGGSLRLSCAAAEYTYLNSCLGWFRQAPGKEREGVATIYMVGGSTFYADSVKGRFTISRDNAKNTVYLMMNSLKPEDTAMYYCAAGSPARCLRRDPTTFNYWGQGTQVTVSSASGS[human IgG1 Fc left out]
notes: VHH, ASGS linker, human IgG1-Fc; expressed in HEK293; also called #9a anti-HSA antibody fused with human IgG1-Fc

- EC50 [1]: 0.0455 µg/mL
- EC50 [2]: 0.0426 µg/mL
- EC50 [3]: 0.045 µg/mL
- Kd [4]: 1.76 nM
- koff [4]: 7.55e-05 s⁻¹
- kon [4]: 42900 M⁻¹ s⁻¹
- Kd [5]: 1.27 nM
- koff [5]: 5.7e-05 s⁻¹
- kon [5]: 44900 M⁻¹ s⁻¹
- Kd [6]: 7.44 nM
- koff [6]: 0.000347 s⁻¹
- kon [6]: 46600 M⁻¹ s⁻¹
B2: #7aHSA-IgG1Fc (Fc fusion)
heavy: HVQLVESGGGSVQAGGSLRVSCVASGNTYLTSCMGWFRQAPGKEREGVASIYTVGGSTFYTNSVKGRFTISRDNAKNTVYLQMNSLQPEDTAMYYCAAGSPARCRLRDPTTFDYWGQGTQVTVSSASGS[human IgG1 Fc left out]
notes: VHH, ASGS linker, human IgG1-Fc; expressed in HEK293; also called #7aHSA fused with human IgG1-Fc
